Source: patent EP1500391A1, “Therapeutic use of bicycloheptane derivatives” (NEURO3D, priority 2003, dated 2005)

Tested on: Na+ channel (site 2)
Details: inhibition of control specific binding; at 1µM (concentration printed only in head of Cpd A); rat cerebral cortex

Structure (SMILES)	%inhibition Na channel
CN(C)CCO[C@@]1(c2ccccc2)C[C@@H]2CC[C@@]1(C)C2(C)C [Cpd A, (1S,2R,4S)-(+)-2-[N,N-(dimethylaminoethoxy)]-2-phenyl-1,7,7-trimethyl-bicyclo[2.2.1]heptane]	50%
CN(C)CCO[C@]1(c2ccccc2)C[C@H]2CC[C@]1(C)C2(C)C [Cpd B, (1R,2S,4R)-(-)-2-[N,N-(dimethylaminoethoxy)]-2-phenyl-1,7,7-trimethyl-bicyclo[2.2.1]heptane]	65%
